Reference: PubChem BioAssay AID624417 (National Center for Advancing Translational Sciences (NCATS), 2012)
Screen size: about 410,000 compounds; about 6,400 (1.6%) were called active. The shares of active, inactive and inconclusive entries below differ from those in the screen. Calls follow the shape of the dose curve; as a rule, active = well fitted inhibition curve with a large enough effect; inconclusive = small, poorly fitted or top-dose-only effect; inactive = no such curve, though single readings can be large or run the other way. A potency beside an inconclusive call is a rough fit, not a confirmed value.

target: Glucagon-like peptide 1 receptor (Homo sapiens) (UniProt P43220); assay: qHTS of GLP-1 Receptor Inverse Agonists (Inhibition Mode); conditions: HEK293 GLP-1R CRE-luciferase, luminescence, 24 h, GLP-1R form is constitutively active; activity change, negative = inhibition: at 38.3 µM (top of the series) unless noted; also: nearly all actives have a fitted effect of over 55% in size
In short: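 Assay principle: reduced luminescence from a cAMP-responsive reporter in HEK293 cells co-expressing a constitutively active GLP-1R. Conditions: 24 hr compound incubation, 37 deg C, 5% CO2.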
% is scaled to controls: 0 for no effect and ±100 for the full control effect; potency is read from the fitted curve at half-maximal effect; tags tell the direction and shape of the fitted curve.

UniProt P43220, sequence (P43220 whole entry, looked up): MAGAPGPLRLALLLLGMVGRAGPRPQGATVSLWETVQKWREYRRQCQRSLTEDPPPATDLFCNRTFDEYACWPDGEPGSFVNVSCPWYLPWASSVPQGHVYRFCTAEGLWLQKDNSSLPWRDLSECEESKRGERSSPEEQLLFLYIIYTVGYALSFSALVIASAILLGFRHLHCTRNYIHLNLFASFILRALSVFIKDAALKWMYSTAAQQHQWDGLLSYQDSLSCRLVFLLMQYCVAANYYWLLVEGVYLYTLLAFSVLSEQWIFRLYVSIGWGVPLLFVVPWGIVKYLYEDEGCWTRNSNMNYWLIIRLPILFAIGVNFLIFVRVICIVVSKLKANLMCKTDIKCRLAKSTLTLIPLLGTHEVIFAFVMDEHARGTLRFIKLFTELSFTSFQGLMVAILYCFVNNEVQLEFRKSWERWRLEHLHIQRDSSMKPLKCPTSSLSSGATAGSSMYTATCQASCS

Potency, active:
CCN1CCCC(Sc2nc3c([nH]2)c(=S)n(C)c(=O)n3C)C1 (stereo not given) 4.47 µM, CN(C(=O)CSc1nc2ccc(NC(=O)CCc3ccccc3)cc2s1)c1ccccc1 8.91 µM

Potency, inconclusive:
Cc1ccc2cccc(NC(=O)C(C)Oc3ccc(C)c(C)c3)c2n1 (stereo not given) 11.2 µM [inhibitor, partial curve, poor fit], CC(C)(C)c1cc(/C=C2\NC(=O)NC2=O)cc(C(C)(C)C)c1O 22.4 µM [inhibitor, single point], COc1ccc(C=NNc2nc3ccccc3s2)cc1 10 µM [inhibitor, single point], O=C(CN1c2cccc3cccc(c23)S1(=O)=O)N1CCN(c2ccc(F)cc2)CC1 31.6 µM [inhibitor, single point], CC(C)c1cccc(C2=CC(=O)C[C@H](c3ccc(F)cc3)C2)c1 10 µM [inhibitor, partial curve, poor fit], CC1=C(C(=O)N(C(C)C)C(C)C)CC(CC(=O)NCc2cccc3ccccc23)C(=O)N1Cc1ccc(C(C)(C)C)cc1 (stereo not given) 0.447 µM [inhibitor, full curve, poor fit], COc1ccc(-c2nc3ccc(C)cn3c2NCc2ccccc2)cc1SC1CCCCC1 28.2 µM [inhibitor, single point], O=C(OCc1ccccc1)c1ccc2c(c1)-c1ccccc1C2=O 28.2 µM [inhibitor, single point], CCOc1ccc(S(=O)(=O)N2CCc3ccccc3C2)cc1 28.2 µM [inhibitor, single point], COCc1ccc(C(=O)N2CCCC(C(=O)c3ccc(Cl)cc3C)C2)o1 (stereo not given) 10 µM [inhibitor, partial curve, poor fit], CCOc1ccc(NS(=O)(=O)c2ccc3[nH]cc(C(=O)NC4CCCC4)c(=O)c3c2)cc1 28.2 µM [inhibitor, single point], O=C(NC(c1ccc(-c2ccccc2)cc1)c1cnccn1)C1CCN(CCCOc2ccccc2)CC1 (stereo not given) 1.41 µM [inhibitor, full curve, poor fit], COc1cccc(-n2c(-c3ccco3)nc3c(cnn3-c3ccc(C)cc3)c2=O)c1 31.6 µM [inhibitor, single point], Cc1ccc(S(=O)(=O)NCCCOC(=O)Nc2ccncc2)cc1 1.41 µM [inhibitor, full curve, poor fit], CC1CC(C)CN(C(=O)CSc2nc(Cc3cccs3)nc3ccccc23)C1 (stereo not given) 28.2 µM [inhibitor, single point], CC(C)CCN(C(=S)Nc1cccc(C(F)(F)F)c1)C(C)c1ccccn1 (stereo not given) 11.2 µM [inhibitor, partial curve], O=C(Nc1ncc([N+](=O)[O-])s1)c1cccc([N+](=O)[O-])c1 3.16 µM [inhibitor, partial curve, poor fit], CSc1ccc(/C=C(/NC(=O)c2ccco2)C(=O)N2CCCCC2)cc1 12.6 µM [inhibitor, partial curve, poor fit], Cc1cccc(-n2c(N)c(C(=O)NCCN3CCOCC3)c3nc4ccccc4nc32)c1 7.94 µM [inhibitor, partial curve, poor fit], COC(=O)[C@]12CCCCC=C1N(CCC1=CCCCC1)C(=O)[C@H](CC(=O)NCCCCc1ccccc1)C2 12.6 µM [inhibitor, partial curve, poor fit], CC(NC(=O)c1cccc(NC(=O)c2nsc3ccccc23)c1)c1ccccc1 (stereo not given) 10 µM [inhibitor, single point], CCOC(=O)c1c(C)[nH]c(C)c1C(=O)CN1C(=O)NC2(CCC(C)CC2)C1=O (stereo not given) 3.16 µM [inhibitor, partial curve, poor fit], CCC(C)Nc1nc(C)nc2c1oc1ccccc12 (stereo not given) 28.2 µM [inhibitor, single point], CCCC(=O)N(CCN1CCOCC1)c1nc2cc(C)c(C)cc2s1 10 µM [inhibitor, partial curve, poor fit], Cc1ccc(-n2cc(CNCCN3CCOC3=O)c(-c3cccc(C)c3)n2)cc1 11.2 µM [inhibitor, partial curve, poor fit], Cc1ccc(C)c(Cn2c(SCC(=O)N(C)Cc3ccccc3)nc3ccccc32)c1 11.2 µM [inhibitor, single point], COc1ccc(OCC(O)CN2CCC(CN3C(=O)c4cccc5cccc(c45)C3=O)CC2)cc1 (stereo not given) 12.6 µM [inhibitor, single point], CCc1ccccc1NC(=O)C(=O)NCC(c1cccnc1)N1CCc2ccccc21 (stereo not given) 22.4 µM [inhibitor, single point], COc1ccccc1C1CC(c2ccccc2)=NN1C(=S)Nc1ccccc1 (stereo not given) 10 µM [inhibitor, partial curve, poor fit], CCCNC(=O)c1nnsc1S(=O)c1ccc(Cl)cc1 (stereo not given) 7.94 µM [inhibitor, partial curve, poor fit], Cc1ccccc1-n1nnc2c(=O)oc3ccccc3c21 11.2 µM [inhibitor, partial curve, poor fit], O=C(Nc1ccc(N2CCOCC2)cc1)C1=NN(c2ccccc2)C(=O)CC1 3.98 µM [inhibitor, full curve], N#CC(C#N)=C1C=CC=CN1/C(=C\c1ccco1)C(=O)c1ccc(Br)cc1 3.16 µM [inhibitor, full curve, poor fit], CCOC(=O)Cc1csc(NC(=O)Cc2ccc(Br)cc2)n1 10 µM [inhibitor, partial curve, poor fit], COC(=O)C1=C(C)N(Cc2ccccc2)C(=NCCc2c[nH]c3ccccc23)N[C@H]1c1ccccc1 28.2 µM [inhibitor, single point], O=C(NCC1CCCCC1)C1CCC(=O)N(CCc2cccc(F)c2)C1 (stereo not given) 28.2 µM [inhibitor, single point], Cc1ccc(Nc2nc(CSc3nnc(-c4ccncc4)n3-c3ccccc3C)cs2)cc1 12.6 µM [inhibitor, single point], NC(=O)c1nsc(C(=O)N(Cc2ccco2)C(C(=O)NCc2ccc(F)cc2)c2ccc(O)cc2)c1N (stereo not given) 12.6 µM [inhibitor, partial curve, poor fit], FC(F)(F)c1cccc(NC(=S)NC2CCCC2)c1 28.2 µM [inhibitor, single point], CCN(CC)CCCNC(=O)Cn1cnc2ccc(S(=O)(=O)N3CCC(C)CC3)cc2c1=O 15.8 µM [inhibitor, single point], C=CCc1c(C)nc(-c2ccccc2)nc1Nc1ccccc1O 8.91 µM [inhibitor, partial curve, poor fit], COC(=O)c1c(/N=C/N(C)C)sc2c1CCN(c1ncc(C(F)(F)F)cc1Cl)C2 22.4 µM [inhibitor, single point], CCCSc1oc(-c2ccco2)nc1S(=O)(=O)c1ccc(Cl)cc1 28.2 µM [inhibitor, single point], Cc1cc(N)n2ncc(-c3ccc(Cl)cc3)c2n1 28.2 µM [inhibitor, single point], COc1ccccc1N1CCN(C(c2ccc(Cl)cc2)c2nnc(-c3cccc(F)c3)o2)CC1 (stereo not given) 10 µM [inhibitor, partial curve, poor fit], CCn1c(CC(=O)Nc2ccccc2OC)nnc1SCC(=O)Nc1ccccc1F 25.1 µM [inhibitor, single point], Cc1onc(-c2ccccc2Cl)c1C(=O)NC(=S)Nc1ccccc1F 5.62 µM [inhibitor, partial curve], CCOc1ccc(Nc2cc(C)nc3c(C)cccc23)cc1 7.94 µM [inhibitor, partial curve, poor fit], Cc1cccc(CCNC(=O)C2CCCN(S(=O)(=O)c3cccc4nsnc34)C2)c1 (stereo not given) 11.2 µM [inhibitor, partial curve, poor fit]

Activity change, negative = inhibition, inactive:
Cc1cc(C)c(S(=O)(=O)N2CCOC2CNC(=O)C(=O)NCCCn2ccnc2)c(C)c1 (stereo not given) -6.52%, CCN1c2ccccc2-c2nc(SCC(=O)Nc3c(C)cc(C)cc3C)ncc2S1(=O)=O -19.3%, O=C(c1ccc(F)cc1)N1CCOCC1 28.9%, COc1ccc(-c2noc3c2-c2nc(-c4ccc(C)cc4)sc2CC3)cc1 17.7%, O=C(Cn1cccc1C(=O)c1ccccc1)NCc1cccnc1 7.42%, Cc1ccccc1N(C)S(=O)(=O)c1ccc2[nH]cc(C(=O)NCC3CCCO3)c(=O)c2c1 (stereo not given) -17.4%, CCN1C(=NCCc2ccccn2)N[C@@H](c2cccc(C(F)(F)F)c2)C(C(=O)OC)=C1C -26.4%, O=C1CC(C(=O)Nc2ccc(Cl)cc2[N+](=O)[O-])C2(CCCCC2)O1 (stereo not given) -16.4%

Activity change, negative = inhibition, inconclusive:
O=C(NCCN1CCN(c2ccccc2)CC1)Nc1ccc(Cl)cc1 -84% [inhibitor]
